The assay relates to 233499-124-R-J3-PDC complex spheroid growth. Nature of the assay: Anticancer human tumor 233499-124-R-J3-PDC patient-derived colon adenocarcinoma cell line growth inhibition [AhR]. As to conditions: for viability, T/C: stronger effect = lower value. From the text: Multicellular complex tumor spheroid response to aryl hydrocarbon receptor antagonists in combination with a variety of drugs and investigational agents in selected tumor cell lines
The current study was undertaken to assess response to aryl hydrocarbon receptor antagonists in combination with standard-of-care drugs and investigational agents in solid tumor complex spheroid models. Complex spheroids include a stromal component modeled by human endothelial cells (HUVEC) and fibroblasts modeled by human mesenchymal stem cells (MSCs). The concentration ranges selected for each drug and investigational agent were based upon clinically achievable concentrations if the clinical Cmax of the agent was known.
Compounds. The drugs and investigational agents: BAY 2416964 (NSC825713), GNF351 (NSC835774), CH-223191 (NSC835775), CPI-455 (NSC825282), aza-TdCyd (NSC777586), decitabine (NSC127716), belinostat (NSC758774), entinostat (NSC756642), pevonedistat (NSC761192), tazemetostat (NSC777109), talazoparib (NSC765396), olaparib (NSC753686), selinexor (NSC780203), nedisertib (M3814, NSC802822), bortezomib (NSC756655), venetoclax (NSC766270), doxorubicin (NSC123127), elimusertib (BAY189344, NSC800525), ceralasertib (AZD6738, NSC777638), TAK-243 (NSC785004), alisertib (NSC759677), etoposide (NSC141540), topotecan (NSC609699), eribulin (NSC707389), gemcitabine (NSC613327), carboplatin (NSC241240), cisplatin (NSC119875), and SN-38 (NSC673596) were obtained from the National Cancer Institute (NCI) Developmental Therapeutics Program Chemical Repository (32). The FDA-approved anticancer drug set is available from the Developmental Therapeutics Program at https://dtp.cancer.gov/organization/dscb/obtaining/available plates.htm. […] The stock solutions were prepared in dimethyl sulfoxide (DMSO, Sigma-Aldrich, St. Louis, MO, cat. D2650), except for the platinum compounds which were prepared in saline (Quality Biological, Gaithersburg, MD, cat. 114-055-101), at 800-fold the tested concentration and stored at -70 degrees C prior to their use. All drugs and investigational agents were tested over a range starting from a high concentration at or near the clinical Cmax and decreasing in half-log increments. If the clinical Cmax for an agent had not been determined, the highest concentration tested was 10 microM (Table 1).
Cell Culture. All cells were maintained in an incubator at 37 degrees C and 5% CO2 with 95% humidity. The PDC lines were cultured according to standard operating procedures established by the NCI PDMR (https://pdmr.cancer.gov). Briefly, all PDCs were thawed and cultured in Matrigel-coated flasks prepared with a working solution of 1X Ham's F-12 nutrient mix, without supplementation (Invitrogen, Waltham, MA, cat. 11765054), 100 U/mL penicillin-streptomycin (Invitrogen, cat. 15140122), and 2.5% Matrigel (Corning Inc., Corning, NY, cat. 354248) for the first three passages. All PDCs were cultured in complete DMEM/F-12 media containing advanced DMEM/F-12 (Invitrogen, cat. 12634028), 4.9% defined fetal bovine serum, heat inactivated (HyClone Laboratories Inc., Logan, UT, cat. SH30070.03HI), 389 ng/mL hydrocortisone (Sigma-Aldrich, cat. H4001), 9.7 ng/mL human EGF recombinant protein (Invitrogen, cat. PHG0313), 23.4 microg/mL adenine (Sigma-Aldrich, cat. A2786), 97.3 U/mL penicillin-streptomycin (Invitrogen, cat. 15140122), 1.9 mM L-glutamine (Invitrogen, cat. 25030081), and 9.7 microM Y-27632 dihydrochloride (Tocris Bioscience, Bristol, United Kingdom, cat. 1254). The PDCs were cultured in complete DMEM/F12 media without 10 microM Y-27632 dihydrochloride for at least two passages prior to the screen. The established cell lines NCI-H1341 and […] were cultured in DMEM/F-12, HEPES (Invitrogen, cat. 11330032), 5% defined fetal bovine serum (HyClone Laboratories Inc., cat. SH30070.03), ITS premix universal culture supplement [insulin (5 microg/mL), transferrin (5 microg/mL), and selenious acid (5 ng/mL)] […]

Not every entry of the source has a single result; some have several. They are shown here; other results are not. There may be further records. The records of an entry are repeats in other runs, samples, wells, individuals or studies. Marks such as (2×) stand for listed records that agree.
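Note: spheroids exposed to agents for seven days before reading.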

The term IC50 denotes the concentration that inhibits the measured activity by half. As for `Nc1ccn(C2OC(CO)C(O)C2(F)F)c(=O)n1` (centres undefined), the half-maximal inhibitory concentration (IC50) (compound alone) was 310 nM, 3.01 µM, > 10 µM.
Regarding `Cc1cncc(-c2nc(NCCc3c[nH]c4ccccc34)c3ncn(C(C)C)c3n2)c1`, the viability, T/C (compound alone 3.16 µM) was 77.5, 84.5, 86.8, 78.7, 64.9, 74.7, 83.4, 82.4, 71.7, 71.5, 65.7, 82.9, 91.5, 66.8, 73.9, 79.8, 101, 75.6, 91.3, 81% and the viability, T/C (compound alone 10 µM) is recorded as 11.4, 11.3, 5.73, 7.48, 39.5, 8.68, 6.44, 10.3, 10.5, 7.69, 13.9, 17.9, 15, 7.32, 6.31, 20.1, 14.9, 6.01, 9.6, 12.2, 4.37%.
`CC(CO)NC(=O)c1cc(-c2ccc(Cl)cc2)nn(-c2cnn(C)c2)c1=O` (centres undefined): the viability, T/C by setting is: (compound alone 0.1 µM) 96.1, 110, 99, 95.9, 83.6, 90.7, 97.9, 106, 92.4, 91.8, 85.8, 96.5, 81.3, 104, 101 (2×), 94.9, 98.3, 95.1, 102%; (compound alone 1 µM) 97.1, 107, 91.7, 84.5 (2×), 86.7 (2×), 98.6, 99.8, 86, 86.8, 83.5, 80.2, 99.2, 106, 94.6, 95.7, 93.6, 86.3, 82.3, 81.2%; (compound alone 10 µM) 87.9, 92, 87.2, 82.3, 83.7, 85.5, 94.1, 84.1, 83.3, 85, 91.1, 74.7, 89.3, 86, 98.3, 90.8, 88.7, 69, 92.2%.
With `Cc1ccccc1N=Nc1ccc(NC(=O)c2ccnn2C)c(C)c1`, the viability, T/C is, setting by setting: (compound alone 0.316 µM) 99.6, 99.3, 93.8 (2×), 106 (2×), 90.5, 85.4, 102 (2×), 110, 104 (2×), 103, 90.8, 95.5, 85 (2×), 89.5, 81.5%; (compound alone 1 µM) 92.2, 104, 91.3 (2×), 110, 102 (3×), 96.5, 94.9, 96.4, 103 (2×), 90.3, 107, 109, 105, 119, 100, 96.6%; (compound alone 3.16 µM) 84 (2×), 96.3, 96, 110, 96.5, 113, 101, 109, 111, 112, 94.6, 107, 97.1, 102, 104, 97.9, 93.4, 100, 92.8%.

The values above are taken from PubChem BioAssay AID1918993 (Molecular Pharmacology Branch, DTP, NCI, 2023).
